# From the supplement of paper PMC8728848
# The other results are listed elsewhere or left out.
# B1: Cohesin-hDECTIN-1 (Homo sapiens) (protein)
# chain: LDITSHHHHHHDDLDAVRIKVDTVNAKPGDTVRIPVRFSGIPSKGIANCDFVYSYDPNVLEIIEIEPGDIIVDPNPDKSFDTAVYPDRKIIVFLFAEDSGTGAYAITKDGVFATIVAKVKEGAPNGLSVIKFVEVGGFANNDLVEQKTQFFDGGVNVGDTTEPATPTTPVTTPTTTDDLDAASSSPCPPNWIIYEKSCYLFSMSLNSWDGSKRQCWQLGSNLLKIDSSNELGFIVKQVSSQPDNSFWIGLSRPQTEVPWLWEDGSTFSSNLFQIRTTATQENPSPNCVWIHVSVIYDQLCSVPSYSICEKKFM
# What was measured:
# Assay in all cases: glycan array binding signal (z-score within array); higher = stronger binding
# Settings in all cases: glycan notation: IUPAC condensed, linker removed
# GlcNAc(b1-3)Man = target: GlcNAc(b1-3)Man
# Procedure, shortened: (§1)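 The Consortium for Functional Glycomics database supplied 3228 glycan arrays, of which those lacking an available protein sequence were dropped. The binding signal, a within-array Z-score, was averaged across arrays of the same protein sequence and across linkers. Negative scores can be read as non-binding.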
# [1] = target: GlcNAc(b1-3)[GlcNAc(b1-4)][GlcNAc(b1-6)]GlcNAc
# Procedure, shortened: as §1
# [2] = target: GlcNAc(b1-3)[GlcNAc(b1-6)]Gal(b1-4)GlcNAc
# Procedure, shortened: as §1
# [3] = target: GlcNAc(b1-3)[GlcNAc(b1-6)]GalNAc
# Procedure, shortened: as §1
# [4] = target: GlcNAc(b1-4)Gal(b1-4)GlcNAc
# Procedure, shortened: as §1
# GlcNAc(b1-4)GlcNAc = target: GlcNAc(b1-4)GlcNAc
# Procedure, shortened: as §1
# [5] = target: GlcNAc(b1-4)GlcNAc(b1-4)GlcNAc
# Procedure, shortened: as §1
# [6] = target: GlcNAc(b1-4)GlcNAc(b1-4)GlcNAc(b1-4)GlcNAc(b1-4)GlcNAc
# Procedure, shortened: as §1
# [7] = target: GlcNAc(b1-4)GlcNAc(b1-4)GlcNAc(b1-4)GlcNAc(b1-4)GlcNAc(b1-4)GlcNAc
# Procedure, shortened: as §1
# [8] = target: GlcNAc(b1-4)[GlcNAc(b1-6)]GalNAc
# Procedure, shortened: as §1
# [9] = target: GlcNAc(b1-6)Gal(b1-4)GlcNAc
# Procedure, shortened: as §1
# GlcNAc(b1-6)GalNAc = target: GlcNAc(b1-6)GalNAc
# Procedure, shortened: as §1
# [10] = target: GlcNAc6S(b1-3)Gal(b1-4)GlcNAc
# Procedure, shortened: as §1
# Kdn(a2-3)Gal(b1-3)GalNAc = target: Kdn(a2-3)Gal(b1-3)GalNAc
# Procedure, shortened: as §1
# Kdn(a2-3)Gal(b1-3)GlcNAc = target: Kdn(a2-3)Gal(b1-3)GlcNAc
# Procedure, shortened: as §1
# Kdn(a2-3)Gal(b1-4)Glc = target: Kdn(a2-3)Gal(b1-4)Glc
# Procedure, shortened: as §1
# Kdn(a2-3)Gal(b1-4)GlcNAc = target: Kdn(a2-3)Gal(b1-4)GlcNAc
# Procedure, shortened: as §1
# [11] = target: Kdn(a2-3)Gal(b1-4)[Fuc(a1-3)]GlcNAc
# Procedure, shortened: as §1
# Kdn(a2-6)Gal(b1-4)GlcNAc = target: Kdn(a2-6)Gal(b1-4)GlcNAc
# Procedure, shortened: as §1
# [12] = target: Man(a1-2)Man(a1-2)Man(a1-3)Man
# Procedure, shortened: as §1
# [13] = target: Man(a1-2)Man(a1-2)Man(a1-6)[Man(a1-3)]Man
# Procedure, shortened: as §1
# Man(a1-2)Man(a1-3)Man = target: Man(a1-2)Man(a1-3)Man
# Procedure, shortened: as §1
# [14] = target: Man(a1-2)Man(a1-3)[Man(a1-2)Man(a1-6)]Man
# Procedure, shortened: as §1
# [15] = target: Man(a1-2)Man(a1-3)[Man(a1-2)Man(a1-6)]Man(a1-6)[Man(a1-2)Man(a1-2)Man(a1-3)]Man
# Procedure, shortened: as §1
# [16] = target: Man(a1-2)Man(a1-3)[Man(a1-2)Man(a1-6)]Man(a1-6)[Man(a1-2)Man(a1-2)Man(a1-3)]Man(b1-4)GlcNAc(b1-4)GlcNAc
# Procedure, shortened: as §1
# [17] = target: Man(a1-2)Man(a1-3)[Man(a1-6)]Man(a1-6)[Man(a1-2)Man(a1-3)]Man(b1-4)GlcNAc(b1-4)GlcNAc
# Procedure, shortened: as §1
# [18] = target: Man(a1-2)Man(a1-6)[Man(a1-3)]Man(a1-6)[Man(a1-2)Man(a1-2)Man(a1-3)]Man
# Procedure, shortened: as §1
# [19] = target: Man(a1-2)Man(a1-6)[Man(a1-3)]Man(a1-6)[Man(a1-2)Man(a1-2)Man(a1-3)]Man(b1-4)GlcNAc(b1-4)GlcNAc
# Procedure, shortened: as §1
# Man(a1-3)[Man(a1-6)]Man = target: Man(a1-3)[Man(a1-6)]Man
# Procedure, shortened: as §1
# [20] = target: Man(a1-3)[Man(a1-6)]Man(a1-6)[Man(a1-2)Man(a1-3)]Man(b1-4)GlcNAc(b1-4)GlcNAc
# Procedure, shortened: as §1
# [21] = target: Man(a1-3)[Man(a1-6)]Man(a1-6)[Man(a1-3)]Man
# Procedure, shortened: as §1
# [22] = target: Man(a1-3)[Man(a1-6)]Man(a1-6)[Man(a1-3)]Man(b1-4)GlcNAc(b1-4)GlcNAc
# Procedure, shortened: as §1
# [23] = target: Man(a1-3)[Man(a1-6)]Man(b1-4)GlcNAc(b1-4)GlcNAc
# Procedure, shortened: as §1
# [24] = target: Man(a1-3)[Man(a1-6)]Man(b1-4)GlcNAc(b1-4)[Fuc(a1-6)]GlcNAc
# Procedure, shortened: as §1
# Man(a1-6)Man = target: Man(a1-6)Man
# Procedure, shortened: as §1
# Man(b1-4)GlcNAc = target: Man(b1-4)GlcNAc
# Procedure, shortened: as §1
# MurNAc(b1-4)GlcNAc = target: MurNAc(b1-4)GlcNAc
# Procedure, shortened: as §1
# Neu5Ac(a2-3)Gal = target: Neu5Ac(a2-3)Gal
# Procedure, shortened: as §1
binder,measurement,setting,value
B1,glycan array binding signal (z-score),GlcNAc(b1-3)Man,-0.449
same,glycan array binding signal (z-score),[1],0.047
same,glycan array binding signal (z-score),[2],-0.577
same,glycan array binding signal (z-score),[3],-0.295
same,glycan array binding signal (z-score),[4],-0.292
same,glycan array binding signal (z-score),GlcNAc(b1-4)GlcNAc,-0.401
same,glycan array binding signal (z-score),[5],-0.385
same,glycan array binding signal (z-score),[6],-0.489
same,glycan array binding signal (z-score),[7],-0.328
same,glycan array binding signal (z-score),[8],-0.366
same,glycan array binding signal (z-score),[9],-0.367
same,glycan array binding signal (z-score),GlcNAc(b1-6)GalNAc,3.07
same,glycan array binding signal (z-score),[10],-0.342
same,glycan array binding signal (z-score),Kdn(a2-3)Gal(b1-3)GalNAc,-0.372
same,glycan array binding signal (z-score),Kdn(a2-3)Gal(b1-3)GlcNAc,-0.537
same,glycan array binding signal (z-score),Kdn(a2-3)Gal(b1-4)Glc,-0.637
same,glycan array binding signal (z-score),Kdn(a2-3)Gal(b1-4)GlcNAc,-0.545
same,glycan array binding signal (z-score),[11],-0.474
same,glycan array binding signal (z-score),Kdn(a2-6)Gal(b1-4)GlcNAc,-0.471
same,glycan array binding signal (z-score),[12],0.67
same,glycan array binding signal (z-score),[13],-0.33
same,glycan array binding signal (z-score),Man(a1-2)Man(a1-3)Man,-0.327
same,glycan array binding signal (z-score),[14],-0.432
same,glycan array binding signal (z-score),[15],-0.463
same,glycan array binding signal (z-score),[16],-0.206
same,glycan array binding signal (z-score),[17],-0.55
same,glycan array binding signal (z-score),[18],0.045
same,glycan array binding signal (z-score),[19],-0.557
same,glycan array binding signal (z-score),Man(a1-3)[Man(a1-6)]Man,-0.41
same,glycan array binding signal (z-score),[20],-0.362
same,glycan array binding signal (z-score),[21],-0.272
same,glycan array binding signal (z-score),[22],-0.562
same,glycan array binding signal (z-score),[23],-0.44
same,glycan array binding signal (z-score),[24],-0.534
same,glycan array binding signal (z-score),Man(a1-6)Man,0.496
same,glycan array binding signal (z-score),Man(b1-4)GlcNAc,-0.36
same,glycan array binding signal (z-score),MurNAc(b1-4)GlcNAc,-0.397
same,glycan array binding signal (z-score),Neu5Ac(a2-3)Gal,-0.403
